# Laboratory results: the supplement of paper PMC11417369
# ± gives the standard deviation of the averaged measurements. Some of the results follow.
# Tested on: PfAP2-G AP2 domain (GST-tagged)
# Assay: gcPBM binding intensity (ln(normalized median fluorescence intensity)); higher = stronger DNA binding
# How it was run: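 Binding of GST-tagged P. falciparum DNA-binding domains, expressed in E. coli and used at about 25 μg on average, was carried out for 1 h in 1× PBS containing 1% milk, 0.2 mg/ml BSA, 0.5% salmon testes DNA and 0.03% Triton X-100. The target was an Agilent 4 × 180k array of primer-extended double-stranded 36-bp intergenic genomic probes plus negative controls, read with Alexa488 anti-GST antibody at 488 nm. Binding intensity is the highest Masliner-normalised natural-log median intensity across replicate spots of either probe orientation.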
row,Sequence,gcPBM binding intensity (ln)
1,AACATTTTTAGATTATATTATTAAATAAGTAACTGC [XGTACX_negctrl_site326],9.88 ± 0.11
2,AACACTTTAATTTATGCACACATATGGAACAACAGC [CACACA_site8241],10.4 ± 0.26
3,TTTTTTTTAATATTTTACATTGTCTGTTAACAAATA [CACACA_negctrl_site599],9.905 ± 0.021
4,TTTTTGTTTTTTTTTTGTACATATATATAAAAAATA [XGTACX_site1214],11.1 ± 0.81
5,ACACATACATACATATGTACATATATACATATATAC [XGTACX_site5559],11.1 ± 0.44
6,TATATATATATGCTACGTACATATATATTATATATA [XGTACX_site7894],11.2 ± 0.55
7,TATCATAATAGACACAGTACATATATGTCTTAAATT [XGTACX_site8775],10.6 ± 0.38
8,GTATTCTTCTCTCCGTGTACATATATATGTATATAT [XGTACX_site803],11.3 ± 0.61
9,AGTAAACGATGATGTTGTACAAAAAGGATAATTTAA [XGTACX_site6698],11.1 ± 0.52
10,TTTTTATTTTTTATGTAATTTAAATAATTATTCAAA [CACACA_negctrl_site1549],9.89 ± 0.32
11,CAATACTATTATTATAGTACGTATAAAATTATATAT [XGTACX_site4950],11.1 ± 0.68
12,TACAAAAAAGAAGATATTCAAACAAAAACAAAAAAA [CACACA_negctrl_site1126],9.715 ± 0.007
13,ATAGTTTATACAAATAGTACGCACAAAAAAAAATAA [XGTACX_site6727],11.5 ± 0.91
14,TATATATTATATATATGTACATATTTATTTTATTTT [XGTACX_site6989],11.2 ± 0.69
15,AATACCGGAAAGCAAACACACATTTGAAAACCATAA [CACACA_site7761],9.92 ± 0.042
16,AAAAAATTTCAAATGACATAATGTAATTTCCCTTTT [GTGCAC_negctrl_site673],9.61 ± 0.18
17,TTTATCAAAATAAATGCACACAAATTGCACATATCT [CACACA_site8281],10.1 ± 0.13
18,AAACCGTGGGAGCACACACACACACGCGCACATATA [CACACA_site6288],10.7 ± 0.38
19,TGTTTCTAAAAAAAAGGTACACATATATATAATATA [XGTACX_site3217],11.4 ± 0.93
20,GTAACCCACCAAAATGCACACATTAAAAAAAAAAAA [CACACA_site1046],10.2 ± 0.48
21,TATATATAAACAAAATGTACATATTTGAGATACCCT [XGTACX_site2195],11.2 ± 0.68
22,TATCTGTATTTATTCACACATATAAAATATAATTAA [CACACA_site5560],9.96 ± 0.25

row,Sequence,gcPBM binding intensity (ln)
1,ATGAATAAATAGGTCACACACAAATATTTATAAATA [CACACA_site7186],10.5 ± 0.42
2,TATATACAATATAGGTGTACATTTTTTTATCTATTT [XGTACX_site8431],11.3 ± 0.69
3,TCTGGCATATAATATTGTACACATATATATATATAT [XGTACX_site8182],11.3 ± 0.67
4,ACATGAATTTATATGTGTACTAACTATATTCTTAAA [XGTACX_site5966],11.5 ± 1.1
5,TATATGTTAATTTTTTTTTTTTTTTTTTTTTTTATA [CACACA_negctrl_site62],9.34 ± 0.13
6,AAAGTACAAGTATAATCACACGTGTCTATTATATAC [CACACA_site4507],10.8 ± 0.58
7,AACGGGGGTAGTTTTATGCACACGTTTATTAATGCT [CACACA_site3173],10.7 ± 0.33
8,GATATGAATATAGGTTGTACTATATATAAAGTATGT [XGTACX_site1877],11.1 ± 0.84
9,CTTTCAATTTTTTTCTGTACCAATAAAAAATATAAA [XGTACX_site2120],11.1 ± 0.81
10,TTGAGCATAAAATTTGGAAACCTCAATCGGACAAAA [GTGCAC_negctrl_site84],10.9 ± 0.59
11,AATATCTTAGTGGATACACACATATAAATGTGTATT [CACACA_site6367],10.4 ± 0.3
12,ATAATGTTTTATAATACACACATTATATATATAAAT [CACACA_site6101],10.03 ± 0.085
13,ATATTTATGTAAAAAAGTACATACAATTATATATGT [XGTACX_site3750],11.5 ± 1.1
14,GATTACAAAAAAAATACACACAAAAAAAAAAAGGAA [CACACA_site2096],9.9 ± 0.23
15,TATATATAATATTGCACACAAAATTAAAAGTAAATA [CACACA_site19],10.1 ± 0.37
16,CATAAATGTCTCACATGTACATATGCATTTTTAAAA [XGTACX_site3194],11.2 ± 0.79
17,CAACTCTTATTTAATTATATGAATTAATTTATATGA [CACACA_negctrl_site200],9.91 ± 0.29
18,TGCATAAATTTATGCACACATAAAAAAAAAAAAAAA [CACACA_site2923],10 ± 0.58
19,ATTATGTTAATAATATGTACATATATCTACATATAT [XGTACX_site7978],11.2 ± 0.64
20,TTAAATACTAAAAAGTGTACACATACATAAAAAATT [XGTACX_site6261],11.7 ± 0.92
21,GAGTATATTTATATTGCACACAATTTTTTTATTTTT [CACACA_site2644],10.1 ± 0.13
22,ATTATTTTGTTTATTACATGCAGGTGTATATTACAG [TGCATGCA_site723],10.1 ± 0.23

row,Sequence,gcPBM binding intensity (ln)
1,TTATTAACCTAAATTAGTACATATAATATAAAAAAT [XGTACX_site8661],11.2 ± 0.66
2,AGCTATGTATTCTACACACACATACACCCATATATA [CACACA_site5827],10.2 ± 0.2
3,TAATAAATAAATGACACACACACACCCAAAAAAAAA [CACACA_site2623],10.4 ± 0.28
4,ATACTAAGGAGAAAAGAAAAGTGAATTTATTCTATA [CACACA_negctrl_site1792],9.52 ± 0.25
5,AAATTTATGAACCTAGTGCAGAAATTAAAAAGATGA [GTGCAC_site9396],10.1 ± 0.11
6,AAAATATTATCTAATTGTACTTATATAACTATATAT [XGTACX_site5699],11.2 ± 0.84
7,TTGAAATGCATGAACACACACAGCTATAAATGCATA [CACACA_site968],9.95 ± 0.17
8,AATATAAGGATATATACACACATAAATACATACATA [CACACA_site7859],10.02 ± 0.099
9,TATTTTTTTAGATATACATGCAAAAACAGAAGAAAT [TGCATGCA_site283],10.3 ± 0.4
10,TCAACATTCATTGGAAGTACTCACTCCCATATAATA [XGTACX_site5211],11.2 ± 0.8
11,ATTCAATATTTATACACACACACTTTTAATAATTAA [CACACA_site7725],10.2 ± 0.16
12,ATATATATAATAAATACACACATTTATATAGATAAA [CACACA_site3254],9.925 ± 0.092
13,TCATTCAGTTTTATCACACACAATCAAACATATATA [CACACA_site2742],10.05 ± 0.014
14,ATAAAAAGAAATCCAATACACACCTTCAAAATGGGT [CACACA_site1622],10.11 ± 0.042
15,TGAACTTTAAACCCTGAACACACACTAATACACCCA [CACACA_site7970],10.7 ± 0.54
16,AATATGTCATATATGTGTACATATGCACAGATATTA [XGTACX_site951],11.4 ± 0.8
17,AATTGCTAATGGTACGAACACACATATAAAGATGCA [CACACA_site8634],10.6 ± 0.33
18,TATTTATGCACGCGTGCACACACATATGAAAAAAGG [CACACA_site9090],11 ± 0.6
19,CTTTCATATGTTTTAACACACACGCATATATTATAG [CACACA_site7033],10.2 ± 0.14
20,AAGAATGTTAACGTTGCACACAAAAAAAAAGTATAC [CACACA_site8763],10.4 ± 0.23
21,ATATAAGTTATTTTATACAAAAAAAAAAAAAAAAAT [CACACA_negctrl_site1190],9.825 ± 0.049
22,AAAAAAAAAAAAAATACACACACATATATATATATA [CACACA_site8698],10.1 ± 0.41

row,Sequence,gcPBM binding intensity (ln)
1,TGTCTTTTTAAGTTTTGTACATAAATATATTTCAAA [XGTACX_site427],11.1 ± 0.49
2,GTAAACAATTATGAACGTACATAAAATAAATGAACA [XGTACX_site7159],11.3 ± 0.85
3,TAATATTATATAAATTGTACTATTTTTTCCTTATTC [XGTACX_site5314],11.2 ± 0.72
4,AGTATACACAGACACACACACACATATATATATATA [CACACA_site8510],10.2 ± 0.31
5,TTTTTATGGACTATGGTGCATTATATATAAATGAAA [GTGCAC_site9557],10.3 ± 0.38
6,CAAAAATATTATTATAGTACATAAATAATATATTTT [XGTACX_site6902],10.9 ± 0.64
7,TAAAAATAGGAGTGTGTGCACATAAATTATATACTA [GTGCAC_site9405],10.5 ± 0.31
8,TTACTTAATAGACACACACACAAAAAAAAAAAAAAA [CACACA_site6572],10 ± 0.65
9,CACATACATAAATACACACACAAAATAATAAAATAA [CACACA_site5304],10.2 ± 0.18
10,ATATCAAATTCTGAAACACACAAAATTACACCTCTA [CACACA_site169],10.03 ± 0.071
11,TTTTCGATATGCTTTTTTTTTCTACTGTCTTTTTAA [TGCATGCA_negctrl_site54],9.89 ± 0.13
12,TTTTCATTTTTCTTTACACACATATATATATATATA [CACACA_site2236],10.2 ± 0.13
13,TATATATATATTTTTTGTACATATTATATAATATAC [XGTACX_site5187],11 ± 0.54
14,AAAAAAAAAAAAAAAAAAAAACACCCAAAAAAATAT [XGTACX_negctrl_site210],10.8 ± 0.33
15,GAAAGACAAATTGTGACACACACAAAAAAAAAAAAA [CACACA_site9241],10.4 ± 0.67
16,TCAAATAATTTGTTGACACACACACCCACATACATA [CACACA_site8717],10.6 ± 0.45
17,ATATTTTTTACTATTACACACAAGGGATTATTATTT [CACACA_site3915],10.02 ± 0.078
18,ACCTTATAAAAAAAAAGTACATATATAAATAATAAA [XGTACX_site4338],11.5 ± 1
19,AAACAATAAAAGATTACACACATATATAGCATATAT [CACACA_site1698],9.8 ± 0.099
20,TATACATAATATATATGTACATATATTCTTTATTTT [XGTACX_site4565],11.1 ± 0.64
21,TGGAGGATAGTTCACAGTACCCAGAAACTCTACGGA [XGTACX_site2560],10.8 ± 0.57
22,AACCATAAATAATTATGTACTAAAAAAAATATATAT [XGTACX_site3415],11.2 ± 0.73
